# Reference: the supplement of paper PMC8728848
# The other results are listed elsewhere or left out.
# Key:
# Test in all cases: glycan array binding signal (z-score within array); higher = stronger binding
# Conditions in all cases: glycan notation: IUPAC condensed, linker removed; mutation: R82H, R255H
# [1] = target: Fuc(a1-2)Gal(b1-4)GlcNAc(b1-3)Gal(b1-4)GlcNAc(b1-2)Man(a1-3)[Fuc(a1-2)Gal(b1-4)GlcNAc(b1-3)Gal(b1-4)GlcNAc(b1-2)Man(a1-6)]Man(b1-4)GlcNAc(b1-4)GlcNAc
# Procedure, shortened: (§1)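 Columns mapping to the same glycan were averaged after glycan names were converted to IUPAC-condensed notation. The data come from 3228 arrays in the Consortium for Functional Glycomics database, limited to those with an available protein sequence. Binding is reported as a within-array Z-score averaged across arrays of one protein sequence and across linkers.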
# [2] = target: Fuc(a1-2)Gal(b1-4)GlcNAc(b1-3)Gal(b1-4)GlcNAc(b1-3)Gal(b1-4)GlcNAc
# Procedure, shortened: as §1
# [3] = target: Fuc(a1-2)Gal(b1-4)GlcNAc(b1-3)GalNAc
# Procedure, shortened: as §1
# [4] = target: Fuc(a1-2)Gal(b1-4)GlcNAc(b1-3)[Fuc(a1-2)Gal(b1-4)GlcNAc(b1-6)]GalNAc
# Procedure, shortened: as §1
# [5] = target: Fuc(a1-2)Gal(b1-4)GlcNAc(b1-3)[Fuc(a1-3)[Gal(b1-4)]GlcNAc(b1-6)]Gal(b1-4)Glc
# Procedure, shortened: as §1
# [6] = target: Fuc(a1-2)Gal(b1-4)GlcNAc(b1-6)GalNAc
# Procedure, shortened: as §1
# [7] = target: Fuc(a1-2)Gal(b1-4)GlcNAc6S
# Procedure, shortened: as §1
# [8] = target: Fuc(a1-2)Gal(b1-4)[Fuc(a1-3)]GlcNAc
# Procedure, shortened: as §1
# [9] = target: Fuc(a1-2)Gal(b1-4)[Fuc(a1-3)]GlcNAc(b1-2)Man(a1-3)[Fuc(a1-2)Gal(b1-4)[Fuc(a1-3)]GlcNAc(b1-2)Man(a1-6)]Man(b1-4)GlcNAc(b1-4)[Fuc(a1-6)]GlcNAc
# Procedure, shortened: as §1
# [10] = target: Fuc(a1-2)Gal(b1-4)[Fuc(a1-3)]GlcNAc(b1-2)[Fuc(a1-2)Gal(b1-4)[Fuc(a1-3)]GlcNAc(b1-4)]Man(a1-3)[Fuc(a1-2)Gal(b1-4)[Fuc(a1-3)]GlcNAc(b1-2)Man(a1-6)]Man(b1-4)GlcNAc(b1-4)GlcNAc
# Procedure, shortened: as §1
# [11] = target: Fuc(a1-2)Gal(b1-4)[Fuc(a1-3)]GlcNAc(b1-3)Gal(b1-4)[Fuc(a1-3)]GlcNAc
# Procedure, shortened: as §1
# [12] = target: Fuc(a1-2)Gal(b1-4)[Fuc(a1-3)]GlcNAc(b1-3)Gal(b1-4)[Fuc(a1-3)]GlcNAc(b1-3)Gal(b1-4)[Fuc(a1-3)]GlcNAc
# Procedure, shortened: as §1
# [13] = target: Fuc(a1-2)Gal(b1-4)[Fuc(a1-3)]GlcNAc(b1-3)GalNAc
# Procedure, shortened: as §1
# [14] = target: Fuc(a1-2)Gal(b1-4)[Fuc(a1-3)]GlcNAc(b1-3)[Neu5Ac(a2-6)Gal(b1-4)GlcNAc(b1-6)]Gal(b1-4)Glc
# Procedure, shortened: as §1
# [15] = target: Fuc(a1-2)Gal3S(b1-4)GlcNAc
# Procedure, shortened: as §1
# [16] = target: Fuc(a1-2)Gal6S(b1-3)GlcNAc
# Procedure, shortened: as §1
# [17] = target: Fuc(a1-2)Gal6S(b1-3)GlcNAc6S
# Procedure, shortened: as §1
# Fuc(a1-2)Gal6S(b1-4)Glc = target: Fuc(a1-2)Gal6S(b1-4)Glc
# Procedure, shortened: as §1
# [18] = target: Fuc(a1-2)Gal6S(b1-4)Glc6S
# Procedure, shortened: as §1
# Fuc(a1-2)[Gal(a1-3)]Gal = target: Fuc(a1-2)[Gal(a1-3)]Gal
# Procedure, shortened: as §1
# [19] = target: Fuc(a1-2)[Gal(a1-3)]Gal(b1-3)GalNAc
# Procedure, shortened: as §1
# [20] = target: Fuc(a1-2)[Gal(a1-3)]Gal(b1-3)GalNAc(b1-3)Gal(a1-4)Gal(b1-4)Glc
# Procedure, shortened: as §1
# [21] = target: Fuc(a1-2)[Gal(a1-3)]Gal(b1-3)GlcNAc
# Procedure, shortened: as §1
# [22] = target: Fuc(a1-2)[Gal(a1-3)]Gal(b1-3)GlcNAc(b1-2)Man(a1-3)[Fuc(a1-2)[Gal(a1-3)]Gal(b1-3)GlcNAc(b1-2)Man(a1-6)]Man(b1-4)GlcNAc(b1-4)GlcNAc
# Procedure, shortened: as §1
# [23] = target: Fuc(a1-2)[Gal(a1-3)]Gal(b1-3)GlcNAc(b1-2)Man(a1-3)[Fuc(a1-2)[Gal(a1-3)]Gal(b1-3)GlcNAc(b1-2)Man(a1-6)]Man(b1-4)GlcNAc(b1-4)[Fuc(a1-6)]GlcNAc
# Procedure, shortened: as §1
# [24] = target: Fuc(a1-2)[Gal(a1-3)]Gal(b1-3)GlcNAc(b1-3)GalNAc
# Procedure, shortened: as §1
# [25] = target: Fuc(a1-2)[Gal(a1-3)]Gal(b1-3)GlcNAc(b1-6)GalNAc
# Procedure, shortened: as §1
# [26] = target: Fuc(a1-2)[Gal(a1-3)]Gal(b1-4)Glc
# Procedure, shortened: as §1
# [27] = target: Fuc(a1-2)[Gal(a1-3)]Gal(b1-4)GlcNAc
# Procedure, shortened: as §1
# [28] = target: Fuc(a1-2)[Gal(a1-3)]Gal(b1-4)GlcNAc(b1-2)Man
# Procedure, shortened: as §1
# [29] = target: Fuc(a1-2)[Gal(a1-3)]Gal(b1-4)GlcNAc(b1-2)Man(a1-3)[Fuc(a1-2)[Gal(a1-3)]Gal(b1-4)GlcNAc(b1-2)Man(a1-6)]Man(b1-4)GlcNAc(b1-4)GlcNAc
# Procedure, shortened: as §1
# [30] = target: Fuc(a1-2)[Gal(a1-3)]Gal(b1-4)GlcNAc(b1-2)Man(a1-3)[Fuc(a1-2)[Gal(a1-3)]Gal(b1-4)GlcNAc(b1-2)Man(a1-6)]Man(b1-4)GlcNAc(b1-4)[Fuc(a1-6)]GlcNAc
# Procedure, shortened: as §1
# [31] = target: Fuc(a1-2)[Gal(a1-3)]Gal(b1-4)GlcNAc(b1-3)GalNAc
# Procedure, shortened: as §1
# [32] = target: Fuc(a1-2)[Gal(a1-3)]Gal(b1-4)GlcNAc(b1-3)[Fuc(a1-2)[Gal(a1-3)]Gal(b1-4)GlcNAc(b1-6)]GalNAc
# Procedure, shortened: as §1
# [33] = target: Fuc(a1-2)[Gal(a1-3)]Gal(b1-4)GlcNAc(b1-6)GalNAc
# Procedure, shortened: as §1
# [34] = target: Fuc(a1-2)[Gal(a1-3)]Gal(b1-4)[Fuc(a1-3)]Glc
# Procedure, shortened: as §1
# [35] = target: Fuc(a1-2)[Gal(a1-3)]Gal(b1-4)[Fuc(a1-3)]GlcNAc
# Procedure, shortened: as §1
binder,measurement,setting,value
"Gal 8 (Mus musculus), Q9JL15 (protein) MGGSHHHHHHGMASMLSLNNLQNIIYNPIIPYVGTITEQLKPGSLIVIRGHVPKDSERFQVDFQLGNSLKPRADVAFHFNPHFKRSSCIVCNTLTQEKWGWEEITYDMPFRKEKSFEIVFMVLKNKFQVAVNGRHVLLYAHRISPEQIDTVGIYGKVNIHSIGFRFSSASALPHTLGDLQSMETSALGLTQINRENIQKPGKLQLSLPFEARLNASMGPGRTVVIKGEVNTNARSFNVDLVAGKTRDIALHLNPHLNVKAFVRNSFLQDAWGEEERNITCFPFSSGMYFEMIIYCDVREFKVAINGVHSLEYKHRFKDLSSIDTLSVDGDIRLLDVRSW",glycan array binding signal (z-score),[1],-0.178
same,glycan array binding signal (z-score),[2],-0.252
same,glycan array binding signal (z-score),[3],-0.255
same,glycan array binding signal (z-score),[4],-0.218
same,glycan array binding signal (z-score),[5],-0.413
same,glycan array binding signal (z-score),[6],-0.239
same,glycan array binding signal (z-score),[7],-0.243
same,glycan array binding signal (z-score),[8],-0.253
same,glycan array binding signal (z-score),[9],-0.21
same,glycan array binding signal (z-score),[10],-0.169
same,glycan array binding signal (z-score),[11],-0.264
same,glycan array binding signal (z-score),[12],-0.258
same,glycan array binding signal (z-score),[13],-0.219
same,glycan array binding signal (z-score),[14],-0.27
same,glycan array binding signal (z-score),[15],-0.255
same,glycan array binding signal (z-score),[16],-0.207
same,glycan array binding signal (z-score),[17],0.037
same,glycan array binding signal (z-score),Fuc(a1-2)Gal6S(b1-4)Glc,0.919
same,glycan array binding signal (z-score),[18],-0.221
same,glycan array binding signal (z-score),Fuc(a1-2)[Gal(a1-3)]Gal,-0.252
same,glycan array binding signal (z-score),[19],-0.238
same,glycan array binding signal (z-score),[20],-0.263
same,glycan array binding signal (z-score),[21],3.22
same,glycan array binding signal (z-score),[22],4.77
same,glycan array binding signal (z-score),[23],-0.114
same,glycan array binding signal (z-score),[24],-0.176
same,glycan array binding signal (z-score),[25],-0.076
same,glycan array binding signal (z-score),[26],-0.176
same,glycan array binding signal (z-score),[27],-0.237
same,glycan array binding signal (z-score),[28],-0.205
same,glycan array binding signal (z-score),[29],2.92
same,glycan array binding signal (z-score),[30],0.358
same,glycan array binding signal (z-score),[31],-0.259
same,glycan array binding signal (z-score),[32],0.101
same,glycan array binding signal (z-score),[33],-0.168
same,glycan array binding signal (z-score),[34],-0.247
same,glycan array binding signal (z-score),[35],-0.209
